Assay results as given in the antibiotic and cytotoxicity screens of Wong et al. (2023).
The other results are listed elsewhere or left out.

Experiments:
HSkMC = human skeletal muscle cells; experiment: cytotoxicity call (relative viability < 0.9); details: 10 µM
HepG2 = experiment: cytotoxicity call (relative viability < 0.9); details: 10 µM
S. aureus RN4220 = experiment: growth inhibition call (relative growth <= 0.2); details: 50 µM

C[C@@H]1CCCCO[C@H](CN(C)S(=O)(=O)c2cccs2)[C@@H](C)CN([C@H](C)CO)C(=O)c2cc(NC(=O)Nc3cccc4ccccc34)ccc2O1
inactive: cytotoxicity call (HSkMC) | cytotoxicity call (HepG2) | growth inhibition call (S. aureus RN4220)

CC(=O)N(C)C[C@@H]1Oc2ncc(C#C[C@H](C)O)cc2C(=O)N([C@H](C)CO)C[C@H]1C
inactive: cytotoxicity call (HSkMC) | cytotoxicity call (HepG2) | growth inhibition call (S. aureus RN4220)

CCS(=O)(=O)Nc1ccc2c(c1)C(=O)N(C)C[C@@H](OC)[C@@H](C)CN(Cc1nccs1)[C@@H](C)CO2
inactive: cytotoxicity call (HSkMC) | cytotoxicity call (HepG2) | growth inhibition call (S. aureus RN4220)

C[C@@H]1CCCCO[C@H](CN(C)Cc2ccncc2)[C@@H](C)CN([C@@H](C)CO)C(=O)c2cc(NS(C)(=O)=O)ccc2O1
inactive: cytotoxicity call (HSkMC) | cytotoxicity call (HepG2) | growth inhibition call (S. aureus RN4220)

NCC(=O)O
inactive: cytotoxicity call (HSkMC) | cytotoxicity call (HepG2) | growth inhibition call (S. aureus RN4220)
